Patent US20250361297A1, “ANTI- SIGLEC-15 BINDING MOLECULES AND METHODS OF USE” (ADAPTAM THERAPEUTICS, S.L., priority 2024, published 2025)

B1: BsAb-1: Siglec-15 x CD3 bispecific antibody, Format-1: KIH & CrossmAb; SEQ ID NOs: 111-114 (protein)
chain 1: DIVLTQSPASLAVSLGQRATISCRASKSVSTSGYSYMHWYQQKPGQPPKLLIYLASNLESGVPARFSGSGSGTDFTLNIHPVEEEDAATYYCQHGRELPFTFGSGTKLEIKRTVAAPSVFIFPPSDEQLKSGTASVVCLLNNFYPREAKVQWKVDNALQSGNSQESVTEQDSKDSTYSLSSTLTLSKADYEKHKVYACEVTHQGLSSPVTKSFNRGEC
chain 2: QVQLQQSGPELVKPGASVKISCKASGYAFSSSWMNWVKQRPGKGLEWIGRIYPGHGETNYNGKFKDKATVTADKSSSTTYMQLSSLTSEDSAVYFCARVDNSDPYYFDYWGQGTTLTVSSASTKGPSVFPLAPSSKSTSGGTAALGCLVKDYFPEPVTVSWNSGALTSGVHTFPAVLQSSGLYSLSSVVTVPSSSLGTQTYICNVNHKPSNTKVDKKVEPKSCDKTHTCPPCPAPEAAGGPSVFLFPPKPKDTLMISRTPEVTCVVVDVSHEDPEVKFNWYVDGVEVHNAKTKPREEQYNSTYRVVSVLTVLHQDWLNGKEYKCKVSNKALPAPIEKTISKAKGQPREPQVCTLPPSRDELTKNQVSLSCAVKGFYPSDIAVEWESNGQPENNYKTTPPVLDSDGSFFLVSKLTVDKSRWQQGNVFSCSVMHEALHNHYTQKSLSLSPGK
chain 3: EVQLVESGGGLVKPGGSLRLSCAASGFTFNTYAMNWVRQAPGKGLEWVARIRSKYNNYATYYADSVKDRFTISRDDSKNTLYLQMNSLKTEDTAVYYCVRHGNFGNSYVSWFAYWGQGTLVTVSSGQPKAAPSVTLFPPSSEELQANKATLVCLISDFYPGAVTVAWKADSSPVKAGVETTTPSKQSNNKYAASSYLSLTPEQWKSHRSYSCQVTHEGSTVEKTVAPTECS[sequence of human IgG1 Fc with changes not given]
chain 4: QTVVTQEPSFSVSPGGTVTLTCRSSTGAVTTSNYANWVQQTPGQAPRGLIGGTNKRAPGVPARFSGSILGNKAALTITGAQADDEAEYFCALWYSNLWVFGGGTKLTVLASTKGPSVFPLAPSSKSTSGGTAALGCLVKDYFPEPVTVSWNSGALTSGVHTFPAVLQSSGLYSLSSVVTVPSSSLGTQTYICNVNHKPSNTKVDKKVEPKSC
modifications: BsAb-1 VL1 + CL; BsAb-1 VH1 + CH; BsAb-1 VH2 + CH; BsAb-1 VL2 + CL
B2: BsAb-2: Siglec-15 x CD3 bispecific antibody, Format-2: KIH & scFv (2 + 1); SEQ ID NOs: 115-118 (protein)
chain 1: B1 chain 1
chain 2: B1 chain 2
chain 3: QVQLQQSGPELVKPGASVKISCKASGYAFSSSWMNWVKQRPGKGLEWIGRIYPGHGETNYNGKFKDKATVTADKSSSTTYMQLSSLTSEDSAVYFCARVDNSDPYYFDYWGQGTTLTVSSASTKGPSVFPLAPSSKSTSGGTAALGCLVKDYFPEPVTVSWNSGALTSGVHTFPAVLQSSGLYSLSSVVTVPSSSLGTQTYICNVNHKPSNTKVDKKVEPKSCGGGGSGGGGSGGGGSQTVVTQEPSFSVSPGGTVTLTCRSSTGAVTTSNYANWVQQTPGQAPRGLIGGTNKRAPGVPARFSGSILGNKAALTITGAQADDEAEYFCALWYSNLWVFGGGTKLTVLGGGGSGGGGSGGGGSGGGGSEVQLVESGGGLVKPGGSLRLSCAASGFTFNTYAMNWVRQAPGKGLEWVARIRSKYNNYATYYADSVKDRFTISRDDSKNTLYLQMNSLKTEDTAVYYCVRHGNFGNSYVSWFAYWGQGTLVTVSSGGGGSGGGGSGGGGS[sequence of human IgG1 Fc with changes not given]
chain 4: B1 chain 1
modifications: BsAb-2 VL1 + CL; BsAb-2 VH1 + CH; BsAb-2 VH2 + CH; BsAb-2 VL2 + CL

Key:
[1] = target: T1, Jurkat cells expressing CD3 (Homo sapiens, UniProt P07766); assay: Binding of bispecific antibodies to Jurkat cells expressing CD3 (flow cytometry); conditions: for binding affinity for CD3-expressing Jurkat cells: flow cytometry, compared to the parental anti-CD3 (FIG. 32B)
T1 construct: endogenous in cells; host or cells: Jurkat

[2] = tested on: target cells expressing Siglec-15; assay: PBMC based TDCC assay (LDH release); format: cell-based; conditions: in the presence of human T-cells (FIG. 34)
Protocol: PBMC based TDCC assay: 5000 target cells (THP-1 S15 OE) were harvested, gently resuspended in the corresponding assay buffer, and added to a 96-well assay plate. The bispecific antibody samples were diluted in assay medium, starting at a concentration of 0.8 nM with a 4-fold dilution factor, and transferred to the appropriate wells of the assay plate. The plate was incubated at room temperature for approximately 30 minutes. Effector cells (PBMCs) were then harvested, resuspended in assay buffer, and their density was adjusted to achieve the desired effector-to-target (E/T) ratio. The effector cell suspension (100 μL per well) was added to the corresponding wells of the assay plate. Following incubation at 37° C. with 5% CO2 for 24 hours, the assay plate was removed, and 50 μL of supernatant from each well was transferred to a new 96-well assay plate. A LDH assay mixture (50 μL per well) was prepared and added to the corresponding wells. Absorbance values were measured at 492 nm and 650 nm using the PHERAstar system. Dose-response curves were generated by plotting the percentage of target cell lysis against the sample concentration. The percentage of target cell lysis was calculated using the formula: %

[3] = target: recombinant CD3 (Homo sapiens, UniProt P07766); assay: Binding of bispecific antibodies to recombinant CD3 (BLI); conditions: compared to the parental anti-CD3 antibody (FIG. 32A)
Protocol: Bispecific antibody production and affinity validation: A) BsAb Design and Recombinant Production: To produce bispecific antibodies (BsAbs), a set of BsAbs and anti-CD3 monoclonal antibody (mAb) will be transiently transfected into Expi CHO-S cells. The transfections were conducted at a 300 ml culture scale. After transfection, antibodies were purified using either a protein A affinity column or his-tag purification resin, depending on the affinity and properties of the expressed antibodies. To further purify the antibodies, size-exclusion chromatography (SEC-HPLC) was employed as a second-step purification, based on the initial purity analysis. B) BsAb Affinity Validation: Once the antibodies were purified, the following steps were performed for affinity validation: 1-Biacore SPR Analysis for Siglec15 Binding: Surface plasmon resonance (SPR) analysis using a Biacore system was conducted for all BsAbs and parental mAbs against Siglec15 to assess binding affinity. 2-Biacore SPR Analysis for CD3 Binding: Similarly, Biacore SPR analysis was conducted for all BsAbs and the parental anti-CD3 mAb to evaluate their binding affinity to CD3. […]

T1 sequence (P07766 23-207): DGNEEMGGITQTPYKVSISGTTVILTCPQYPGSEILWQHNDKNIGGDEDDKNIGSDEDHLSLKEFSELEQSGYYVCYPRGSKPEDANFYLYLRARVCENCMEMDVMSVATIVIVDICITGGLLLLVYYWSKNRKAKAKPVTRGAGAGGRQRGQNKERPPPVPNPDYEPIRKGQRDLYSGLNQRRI
T1 sequence (P04234 22-171 partner): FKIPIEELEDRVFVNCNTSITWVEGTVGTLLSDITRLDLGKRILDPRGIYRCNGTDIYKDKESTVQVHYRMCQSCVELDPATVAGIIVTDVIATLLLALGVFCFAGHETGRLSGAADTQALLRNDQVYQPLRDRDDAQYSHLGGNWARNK
T1 sequence (P09693 23-182 partner): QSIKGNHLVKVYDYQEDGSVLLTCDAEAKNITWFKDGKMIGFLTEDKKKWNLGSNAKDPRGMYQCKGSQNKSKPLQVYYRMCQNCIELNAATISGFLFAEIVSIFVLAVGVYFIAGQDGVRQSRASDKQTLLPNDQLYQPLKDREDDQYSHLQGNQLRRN
T1 sequence (P20963 22-164 partner): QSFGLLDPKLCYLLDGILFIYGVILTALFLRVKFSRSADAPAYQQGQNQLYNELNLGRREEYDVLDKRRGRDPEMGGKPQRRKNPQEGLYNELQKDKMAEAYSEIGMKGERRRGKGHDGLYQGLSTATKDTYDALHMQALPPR
T1 sequence (P01848 whole entry partner): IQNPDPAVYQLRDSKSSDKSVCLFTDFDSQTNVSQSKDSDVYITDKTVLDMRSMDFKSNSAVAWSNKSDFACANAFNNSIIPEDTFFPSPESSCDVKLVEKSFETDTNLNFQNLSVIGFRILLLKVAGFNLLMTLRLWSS
T1 sequence (P01850 whole entry partner): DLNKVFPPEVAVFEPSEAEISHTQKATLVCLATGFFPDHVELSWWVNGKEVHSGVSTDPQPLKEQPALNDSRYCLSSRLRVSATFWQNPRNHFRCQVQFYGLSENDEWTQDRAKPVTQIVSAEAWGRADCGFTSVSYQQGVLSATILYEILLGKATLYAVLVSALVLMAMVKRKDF
recombinant CD3, sequence (P07766 23-207): as the sequence (P07766 23-207) above

Molecule | affinity for CD3-expressing Jurkat cells, BsAb-1 versus BsAb-2 ([1]; flow cytometry (FIG. 32B)) | binding affinity for CD3-expressing Jurkat cells [1] | lysis of target cells expressing Siglec-15 [2] | binding affinity for recombinant CD3 [3]
B1 | higher affinity than BsAb-2 | lower binding affinity | approximately 70% | lower binding affinity
B2 |  | lower binding affinity | ~40% | lower binding affinity
